Assay results from patent publication US20210380699A1 (published 2021).

Legend:
[1] = target: T1, Human PD-L1 expressed on cells (human, UniProt Q9NZQ7); test: flow cytometry on CHO hPD-L1 cells, competitor biotin-CD80-Fc
T1 construct: One entry used for transfected and natively expressing cells; also called CHO-S hPD-L1; CHO human PD-L1
Procedure: (§1) Plates were centrifuged at 300×g for 3 minutes to supernatant aspirated. […] Cells were washed with 150 μL of PBS and centrifuged at 300 g for 3 minutes. Supernatant was aspirated and 150 μL PBS added. This wash step was repeated.

[2] = target: T1, Human PD-L1 expressed on cells; test: flow cytometry on CHO hPD-L1 cells, competitor biotin-CD80-Fc, n = 1
Procedure: (§2) 150 μL FACS buffer is added and cells washed as described above. […] Cells are incubated at 4° C. for 60 minutes. Cells are washed twice with 150 μL FACS buffer, centrifuging at 300 g for 3 minutes after each wash step and aspirating supernatant. Cells are fixed, washed and resuspended for analysis as above. APC signal intensity (geometric mean) is measured by flow cytometry using a Beckman Coulter CYTOFLEX instrument. Data is plotted as percentage of receptor binding.
All other steps are performed as per plate 2.

[3] = target: T1, Human PD-L1 expressed on cells; test: cell-based or functional assay
[4] = target: T2, Human PD-L1 His (human PD-L1 ECD with C-terminal His tag) (human, UniProt Q9NZQ7 in part); test: ELISA, biotin-PD-L1 to plate-bound PD-1, antibody titrated
T2 construct: Biotinylated in ELISA and AlphaScreen assays; also called hPD-L1-his; biotinylated PD-L1 his
Procedure: Excess protein was removed by washing with PBS-Tween (0.1% v/v) and the wells were blocked with 1% w/v bovine serum albumin (BSA, Sigma) in PBS for 1 hour at room temperature, after which plates were washed as described previously. […] The plate was incubated for 30 minutes before transferring 50 μL to the coated plates. The coated plates were incubated for 1 hour at room temperature. Excess protein was removed by washing with PBS-Tween (0.1% v/v). PD-L1 binding was detected using streptavidin labelled Europium (Perkin Elmer) diluted 1/1000 in DELFIA assay buffer (Perkin Elmer). Plates were washed with TBS (Tris buffered saline)-Tween (0.1% v/v) and 50 μL/well of DELFIA Enhancement solution (Perkin Elmer) was added to the plate. Time-resolved fluorescence was measured at 615 nm on an Envision plate reader (PerkinElmer).

[5] = target: T1, Human PD-L1 expressed on cells; test: flow cytometry on CHO hPD-L1 cells, competitor biotin-PD-1-Fc, n = 2
Procedure: as §2

[6] = target: T2, Human PD-L1 His (human PD-L1 ECD with …); test: SPR 37C, antibody captured, PD-L1 analyte
Procedure: (§3) Label-free surface plasmon resonance (SPR) analysis was carried out on the ProteOn XPR36 (BioRad) array SPR machine. An anti-human IgG capture surface was created on a GLC biosensor chip using a combination of anti-human Fc antibodies (Jackson Labs 09-005-008,109-006-008 and 309-006-008) by amine coupling. […] The data was analysed using the 1:1 model inherent to the ProteOn XPR36 analysis software.
(§4) Label-free surface plasmon resonance (SPR) analysis was performed as per Example 4, except the assay was performed at 37° C.

[7] = target: T3, Cyno PD-L1 FLAG (cynomolgus PD-L1 ECD with FLAG tag) (cynomolgus monkey); test: SPR 37C, antibody captured, PD-L1 analyte
T3 construct: also called cynomolgus monkey PD-L1-FLAG
Procedure: as §3, §4

[8] = target: T1, Human PD-L1 expressed on cells; test: cell-based or functional assay; remark: listed apart in the source
[9] = target: T1, Human PD-L1 expressed on cells; test: cell-based or functional assay; remark: listed apart in the source
[10] = target: T1, Human PD-L1 expressed on cells; test: flow cytometry on CHO hPD-L1 cells, competitor biotin-PD-1-Fc
Procedure: as §1

PD-L2-Fc (R&D Systems) = target: T4, PD-L2-Fc (R&D Systems) (UniProt Q9BQ51 20-219, limits assumed); test: DELFIA plate assay, biotinylated antibody on plate-bound PD-L2-Fc
T4 construct: not shown: Fc of the bought protein
T4 sequence (looked up): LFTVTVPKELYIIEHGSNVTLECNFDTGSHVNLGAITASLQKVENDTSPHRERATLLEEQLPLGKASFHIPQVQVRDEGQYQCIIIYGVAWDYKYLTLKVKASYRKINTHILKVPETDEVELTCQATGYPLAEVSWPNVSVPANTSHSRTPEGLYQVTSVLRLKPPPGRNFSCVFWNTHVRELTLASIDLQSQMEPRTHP
Procedure: Excess protein was removed by washing with PBS-Tween (0.1% v/v) and the wells were blocked with 250 μL/well Pierce Protein Free Blocking Buffer (Thermo, 37572) for 1 hour, after which plates were washed as described previously. […] 100 μL each antibody dilution was added to the plates in duplicate and incubated for 1 hour at room temperature, before washing as stated above. Antibody binding was detected using streptavidin labelled Europium (Perkin Elmer) diluted 1/1000 in DELFIA Assay buffer (Perkin Elmer). Plates were washed with TBS (Tris buffered saline)-Tween (0.1% v/v) and 50 μL/well of DELFIA Enhancement solution (Perkin Elmer) was added to the plate. Time-resolved fluorescence was measured at 615 nm on an Envision plate reader (PerkinElmer).

[11] = target: T1, Human PD-L1 expressed on cells; test: flow cytometry on CHO hPD-L1 cells, competitor biotin-PD-1-Fc, n = 1
Procedure: as §2

T1 sequence (Q9NZQ7 19-290 limits assumed): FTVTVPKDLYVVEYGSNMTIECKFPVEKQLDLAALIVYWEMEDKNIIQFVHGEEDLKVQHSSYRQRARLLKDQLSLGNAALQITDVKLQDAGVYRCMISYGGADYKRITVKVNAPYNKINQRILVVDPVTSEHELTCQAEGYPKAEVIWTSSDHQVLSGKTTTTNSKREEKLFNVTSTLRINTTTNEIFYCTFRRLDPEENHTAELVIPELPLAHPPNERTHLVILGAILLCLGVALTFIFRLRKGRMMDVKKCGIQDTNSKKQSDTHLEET

B1: 1D05 (human IgG1) (antibody)
heavy: EVQLVESGGGLVQPGRSLRLSCAASGFTFDDYAMHWVRQVPGKGLEWVSGISWIRTGIGYADSVKGRFTIFRDNAKNSLYLQMNSLRAEDTALYYCAKDMKGSGTYGGWFDTWGQGTLVTVSS[human IgG1 constant region omitted]
light: [about 100 residues omitted][about 100 residues omitted]
notes: also called clone 1D05; lead antibody
B1 was tested, and the IC50 [1] was 1.18 nM, the IC50 [2] was 1.15 nM and the “EC50, ADCC reporter assay, n = 1” value [3] was 0.0241 nM. For the same binder, the “EC50, ADCC reporter assay, n = 2” value [3] was 0.0215 nM, the “EC50, ADCC reporter assay, n = 3” value [3] was 0.0347 nM and the IC50 [4] was 5.21 nM. For the same binder, the IC50 [5] was 1.46 nM, the Kd [6] was 0.42 nM and the Kd [7] was 0.43 nM. For the same binder, the “EC50, IL-2 induction, murine T cell hybridoma assay, n = 1” value [8] was 0.33 nM, the “EC50, IL-2 induction, murine T cell hybridoma assay, n = 2” value [8] was 0.21 nM and the “EC50, IL-2 induction, murine T cell hybridoma assay, n = 3” value [8] was 0.21 nM. The “mean EC50, IFNγ induction, monocyte-T cell co-culture” value [9] was 0.21 nM, the IC50 [10] was 2.21 nM and the binding result (PD-L2-Fc (R&D Systems)) was “no binding (tested: 10 µg/mL top concentration)”. It also gave an IC50 [11] of 1.27 nM.
